Some entries of the source have several records that differ or are many. They are shown here; other results are not. The source may hold further records. Values given together read as repeated measurements (runs, samples, wells or individuals).
Target: recombinant His-tagged canine interleukin-13 (cIL-13) (canine) (UniProt Q9N0W9)
Assay: ELISA, His-tagged cIL-13 on nickel-coated plate

Chain of UniProt Q9N0W9 (Q9N0W9 other isoform, or with tags, fused parts or gaps): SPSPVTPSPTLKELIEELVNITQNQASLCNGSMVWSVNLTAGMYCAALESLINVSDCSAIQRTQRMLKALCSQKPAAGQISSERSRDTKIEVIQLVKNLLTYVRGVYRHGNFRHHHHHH

B1: mouse monoclonal antibody 32A10-#20 (antibody, from another filing, V domains shown)
VH: EVQLQQSGPELVKPGASVKVSCKTSGYSFTDYPIYWVRQSHGESLEWIGYIDPYNGGTTYNQNFKDKATLTVDKSSSTAFMHLNSLTSEDSAVYFCATAVVATDVMENWGQGTSVTVSS
VL: DIVLTQSQKFMSTSVGDRVSITCKASQNVRNAVAWFQQKPGQSPKALIYLASNRYTGVPDHFTGSGSGTDFTLTISNVQSEDLADYFCLQHWNYPLTFGAGTKLELK
EC50: 0.218 µg/mL and 1.45 nM [columns of one line]

Source: patent EP4671274A1
